# From paper PMC5540273 (PLoS ONE, 2017)
# Like-named read-outs stand apart in the source and are kept apart here. For some of these results: The strong results were mostly taken out for another list; the other results follow. The list shows a part of the results, in another mix than the full data.
# Tests used:
# [1] = tested on: TBK1; settings: concentration: 1 μM,replicates: in singlicate; n = 1
# [2] = tested on: TEC; settings: concentration: 1 μM,replicates: in singlicate; n = 1
# [3] = tested on: TESK1; settings: concentration: 1 μM,replicates: in singlicate; n = 1
# [4] = tested on: TGFBR1; settings: n = 1
# [5] = tested on: TGFBR2; settings: concentration: 1 μM,replicates: in singlicate; n = 1
# [6] = tested on: TIE1; settings: concentration: 1 μM,replicates: in singlicate; n = 1
# [7] = tested on: T1, TIE2; settings: concentration: 1 μM,replicates: in singlicate; n = 1
# T1 construct: gene TEK
# [8] = tested on: TLK1; settings: concentration: 1 μM,replicates: in singlicate; n = 1
# [9] = tested on: TLK2; settings: concentration: 1 μM,replicates: in singlicate; n = 1
# [10] = tested on: TNIK; settings: concentration: 1 μM,replicates: in singlicate; n = 1
# [11] = concentration: 1 μM,replicates: in singlicate
# 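Note: KINOMEscan kinase panel screen.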
Structure (SMILES),%Inh [1] [%],%Inh [2] [%],%Inh [3] [%],"%Inh [4, 11] [%]",%Inh [5] [%],%Inh [6] [%],%Inh [7] [%],%Inh [8] [%],%Inh [9] [%],%Inh [10] [%],%Inh ([4]; 1 µM) [%]
CS(=O)(=O)c1ccccc1-c1nc(-c2ccc(F)cc2)c(-c2ccncc2)[nH]1 [SB-213663],94.3,0,11,15,14,3,10,13,0,48,
COc1cccc(C2=C(Nc3ccc(SC)cc3)C(=O)NC2=O)c1 [SB-331032],23,9,7,22,0,0,10,9,20,35,
O=C1NC(=O)C(c2ccccc2)=C1Nc1ccc(Cl)c(C(=O)O)c1 [SB-390532],8,0,12,5,0,0,0,0,0,0,
O=C1NC(=O)C(c2ccc(Cl)cc2)=C1Nc1ccccc1 [SB-317661],38,0,0,14,0,0,0,0,11,0,
Cc1ccc(C)c(Oc2nccc(-c3c(-c4ccc(F)cc4)ncn3C3CCNCC3)n2)c1.O=C(O)C(F)(F)F.O=C(O)C(F)(F)F.O=C(O)C(F)(F)F [SB-284852],40,10,26,0,3,0,17,0,0,28,
O=C1NC(=O)C(c2ccc(Cl)cc2)=C1Nc1cccc(C(=O)O)c1 [SB-360737],11,19,27,20,0,0,7,0,0,0,
O=C1NC(=O)C(c2ccccc2)=C1Nc1cc(Cl)c(O)c(Cl)c1 [SB-390530],0,18,13,29,26,17,11,14,16,0,
O=C1NC(=O)C(c2ccccc2Cl)=C1Nc1ccccc1 [SB-376715],15,0,5,0,0,0,8,52,39,0,
COc1ccc(C2=C(Nc3cccc(Cl)c3)C(=O)NC2=O)cc1 [SB-326892],22,3,23,5,7,0,0,44,0,0,
CSc1ccc(NC2=C(c3cccc(Cl)c3)C(=O)NC2=O)cc1 [SB-341528],14,0,0,3,0,11,0,8,0,4,
O=C1NC(=O)c2c1c(-c1ccccc1)cc1[nH]c3ccc(O)cc3c21,47,0,5,2,0,13,15,35,5,89,
Cc1cc(C)cc(Oc2nccc(-c3c(-c4ccc(F)cc4)ncn3C3CCNCC3)n2)c1.O=C(O)C(F)(F)F.O=C(O)C(F)(F)F.O=C(O)C(F)(F)F [SB-284851],49,16,28,20,0,0,14,0,0,22,
O=C1NC(=O)C(c2ccc(Cl)cc2)=C1Nc1ccc(O)c(Cl)c1 [SB-405367],8,5,10,15,72,0,0,13,8,0,
O=C(O)c1ccc(-c2nc(-c3ccc(F)cc3)c(-c3ccncc3)[nH]2)cc1 [SB-202620],37,3,16,,35,0,5,0,18,29,17
O=C1NC(=O)C(c2ccccc2Cl)=C1Nc1cccc(C(=O)O)c1 [SB-390526],12,0,0,0,0,0,0,6,0,0,
O=C1NC(=O)C(c2ccc(Cl)cc2)=C1Nc1cccc(O)c1 [SB-333613],30,1,0,41,1,10,9,23,20,38,
